Assay results reported in patent US7105491B2 (priority 1999, dated 2006).
Like-named read-outs stand apart in the source and are kept apart here.

Test system: Micrococcus luteus ATCC9431
Conditions: compound isolated from S. globisporus mutant strain, M. luteus as testing organism
From the text: Escherichia coli DH5α was used as a general host for routine subcloning (Sambrook et al. (1989) Molecular cloning, a laboratory manual. Cold Spring Harbor Laboratory, Cold Spring Harbor, NY). E. coli XL 1-Blue MR (Stratagene, La Jolla, Calif.) was used as the transduction host for cosmid library construction. E. coli S17-1 was used as the donor host for E. coli-S. globisporus conjugation (Mazodier et al. (1989) J. Bacteriol. 171: 3583–3585). Micrococcus luteus ATCC9431 was used as the testing organism to assay the antibacterial activity of C-1027 (Hu et al. (1988) J. Antibiot. 41: 1575–1579). The pGEM-3zf, -5zf, and -7zf and pGEM-T vectors were from Promega (Madison, Wis.).
The production of C-1027 was detected by assaying its antibacterial activity against M. luteus (Hu et al. (1988) J. Antibiot. 41: 1575–1579). From liquid culture, fermentation supernant (180 μL) was added to stainless steel cylinders placed on LB plates pre-seeded with overnight M. luteus culture (0.01 % vol/vol). From solid culture, a small square block (0.5×0.5×0.5 cm^3) of agar from either R2YE or ISP-4 medium was directly placed on M. luteus-seeded LB plates. The plates were incubated at 37° C. for 24 hrs, and C-1027 production was estimated by measuring the size of inhibition zones.
Bioassay: The S. globisporus sgcC mutant strain was cultured under the identical conditions as the wild-type strain. […]

Substance: deshydroxy-C-1027 [compound 3]
- activity against M. luteus, inhibition zone on the bioassay plate: clear inhibition zone
- activity against M. luteus, inhibition zone on the bioassay plate (listed as deshydroxyl-C-1027): active
